Results taken from the supplement of paper PMC3334620.
In all, about 33,000 sequences were measured (“E-score (-0.5 to 0.5)”: median about -0.053, highest 2% from about 0.37 on). The list shows a part of the results.

Biological target: Hap1 (UniProt P0CE41)
Assay: PBM E-score (8-mer binding enrichment) (E-score (-0.5 to 0.5)); higher = stronger / more preferred TF binding; most listed sequences are background and not binding sites
Settings: protein concentration: 200 nM; construct: GST-DNA-binding domain
In short: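 Bound GST-tagged yeast transcription factors, applied at about 100-200 nM to double-stranded universal all-10-mer Agilent arrays, were detected with fluorescent anti-GST. Scans were normalised with masliner. A modified Wilcoxon-Mann-Whitney statistic, the E-score, was assigned to each ungapped eight-base word pooled with its reverse complement by the Universal PBM Analysis Suite.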

Chain of UniProt P0CE41 (P0CE41 whole entry): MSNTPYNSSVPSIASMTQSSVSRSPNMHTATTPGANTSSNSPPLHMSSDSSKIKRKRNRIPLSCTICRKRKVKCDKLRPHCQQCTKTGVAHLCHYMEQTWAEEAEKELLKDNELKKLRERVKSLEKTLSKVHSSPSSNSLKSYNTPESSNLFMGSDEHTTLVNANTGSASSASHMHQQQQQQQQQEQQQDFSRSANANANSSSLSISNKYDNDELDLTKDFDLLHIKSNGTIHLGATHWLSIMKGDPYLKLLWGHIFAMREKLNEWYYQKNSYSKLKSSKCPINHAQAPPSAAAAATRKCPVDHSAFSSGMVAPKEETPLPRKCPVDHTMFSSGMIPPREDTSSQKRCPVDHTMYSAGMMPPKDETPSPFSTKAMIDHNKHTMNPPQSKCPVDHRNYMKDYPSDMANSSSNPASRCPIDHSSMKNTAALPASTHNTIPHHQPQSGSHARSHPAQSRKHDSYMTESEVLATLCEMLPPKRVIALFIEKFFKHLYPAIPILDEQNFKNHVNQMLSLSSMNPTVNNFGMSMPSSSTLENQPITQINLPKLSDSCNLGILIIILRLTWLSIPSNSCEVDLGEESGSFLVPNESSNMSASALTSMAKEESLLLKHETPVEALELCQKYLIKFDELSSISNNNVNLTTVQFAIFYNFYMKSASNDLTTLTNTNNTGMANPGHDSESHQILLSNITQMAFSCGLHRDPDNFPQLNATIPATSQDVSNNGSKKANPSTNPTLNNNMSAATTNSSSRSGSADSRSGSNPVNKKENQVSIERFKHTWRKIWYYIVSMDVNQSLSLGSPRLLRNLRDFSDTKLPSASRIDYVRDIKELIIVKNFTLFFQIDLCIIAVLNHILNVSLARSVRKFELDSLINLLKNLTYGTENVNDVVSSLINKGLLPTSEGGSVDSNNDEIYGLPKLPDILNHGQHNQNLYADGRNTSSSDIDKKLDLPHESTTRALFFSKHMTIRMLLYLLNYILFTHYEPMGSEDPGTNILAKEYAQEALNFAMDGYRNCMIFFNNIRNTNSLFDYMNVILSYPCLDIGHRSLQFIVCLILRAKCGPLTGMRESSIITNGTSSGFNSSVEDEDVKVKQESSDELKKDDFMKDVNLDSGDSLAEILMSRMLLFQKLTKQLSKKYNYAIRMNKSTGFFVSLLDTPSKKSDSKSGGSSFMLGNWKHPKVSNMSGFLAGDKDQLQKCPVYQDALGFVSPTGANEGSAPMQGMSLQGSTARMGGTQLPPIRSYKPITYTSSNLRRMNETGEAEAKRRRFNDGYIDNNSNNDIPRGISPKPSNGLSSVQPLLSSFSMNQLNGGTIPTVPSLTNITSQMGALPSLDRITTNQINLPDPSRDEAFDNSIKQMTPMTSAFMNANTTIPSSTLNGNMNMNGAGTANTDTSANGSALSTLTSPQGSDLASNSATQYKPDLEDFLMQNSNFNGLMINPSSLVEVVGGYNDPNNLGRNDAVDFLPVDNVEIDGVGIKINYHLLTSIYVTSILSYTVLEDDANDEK

Sequence	PBM E-score
GCGTAAAA	0.0774
GCTCTCTA	-0.299
TCACCAAA	-0.144
CTTTTAGC	-0.0909
CATTAGCC	0.0498
AGCCGACC	0.156
CCACTGAA	-0.0989
CTCTAAAC	-0.178
GCGAGCAA	-0.15
GGATGATA	-0.00353
AACTCTAA	0.0163
CTGGCCAG	-0.298
ACGCTCAA	-0.158
CGCGCCCG	0.29
AGCACAAG	-0.211
CGCAAATC	0.064
AAGCCTGT	-0.00721
CGACTGTC	-0.225
CGCCGCAC	0.0275
CTGCCACA	-0.138
CGAAAACA	0.0788
CAGGCTAA	-0.198
GTTACCTA	-0.281
CGAGAGCA	0.062
ATTTCCGC	0.399

Sequence	PBM E-score
AGATCCGA	0.359
AATTTCCC	0.06
ATCCCCTA	-0.144
AGACCGGA	0.334
AACCGGTC	0.272
CTTGAAAA	-0.246
ATCCCGAA	0.295
TAAATTGA	-0.11
AATGTTCT	-0.226
AGAGCATG	-0.165
TGCATACA	-0.1
CGGTACTA	0.323
GTAGTCTA	-0.238
CTACTAAG	-0.0276
AAATAGGT	-0.114
ACCTGAAG	-0.127
GCGGACGA	0.366
AGCGCGTA	-0.0111
AGTAAACT	-0.126
CGGCAGAG	0.111
AAGTCATG	-0.037
CACTGAGA	-0.276
AAATGAGA	-0.243
ACACATTC	0.00613
AGAGGGAA	-0.212

Sequence	PBM E-score
CCGCAACC	0.132
AATCGTTG	-0.0336
CAGGTCAG	-0.178
GCAGGTCA	-0.162
AACCGGGT	0.27
ACACAGAA	-0.148
AAGCAGCC	-0.0926
GGAAACGA	0.0226
AACCGGTT	0.322
AATGCCAT	0.0424
TCCGCCGA	0.425
AGAATTAA	-0.119
GTAATTAA	0.00588
GGTATCTA	0.22
CTAACGTA	-0.161
AGAGTGAC	-0.193
ACGCTCTC	-0.0369
TCATATGA	0.112
ACGGCAAC	-0.0151
GATTATGC	0.247
GATATAAA	0.149
AAGAACCT	-0.202
CCCGAGCG	0.354
ACAACTTG	-0.151
AGGCTTTC	-0.25

Sequence	PBM E-score
CGTTGAGA	-0.0696
CCTAATGA	-0.254
ACTATTGG	-0.169
CTATGTCA	-0.332
ACCCTTGC	0.0089
ACACCACA	-0.0293
ACTGTATC	-0.0347
AACGCACC	-0.133
AAAAGGGG	-0.117
GGAAATAA	0.413
ATCTTCGC	0.0373
ATACAGTC	-0.143
ATGGAATG	0.0898
ATAGGTGC	-0.0566
TCGTAGAA	-0.194
AGGCATAG	-0.0783
CATTACAG	-0.176
CCCCGGCA	0.23
CGAGATAA	0.164
GGGGTGTA	-0.0556
CGCCATCA	-0.161
CGGGTTAA	0.359
AGCACCTA	-0.165
CATGACGG	-0.0378
AACAGAAC	-0.103

Sequence	PBM E-score
CACCTTAC	-0.192
AGGCTCTG	-0.324
TAGAAGGA	-0.134
ACACATGA	-0.286
ATTGATTC	0.0698
ATAGCGTG	-0.0895
AAATGGTG	-0.0779
TCAACTGA	-0.109
AGGATAGC	0.0089
ACCGTCTG	-0.0703
TATCCAGA	-0.0797
CCGGGCCG	0.425
GTAGATAC	-0.208
CACCACTA	-0.0168
CGCAGTGA	-0.188
CAGGACCC	-0.0829
ATTGTAAC	-0.077
CCAGGACG	-0.11
GCAGGTCC	0.0812
CCACGAAC	-0.0332
ACATGACG	-0.171
GAATCTAC	-0.147
ACCGTTCT	-0.0137
CTTAGTTC	0.0195
AAGACGGC	-0.0121

Sequence	PBM E-score
GAGTGCAA	-0.0275
TCAAAGGA	-0.354
CGCAATGC	-0.159
ACCACAGT	-0.153
ATGTTATG	-0.107
GTATGGTA	-0.205
TATAGTCA	-0.307
CCAGACTC	-0.19
AAGCTGAG	-0.168
CTAAGAGA	-0.177
CGAGAACC	0.102
CCCCTAGG	-0.286
GAGAGCAC	-0.0522
GACAGTAC	0.141
GCAGAAAC	-0.155
AGATCGCG	0.107
AAGTTACG	-0.0204
GACACGCA	-0.0242
ACTAAAAG	0.0881
GCTAGATA	-0.0602
ATTTTTTC	0.0514
ATATACTG	0.0229
AGGCAAGC	-0.106
CCAAGTAG	-0.351
CCTGGTCG	0.0252

Sequence	PBM E-score
CGAGATTC	0.16
CTGGCTGC	-0.136
CGTCCCTA	-0.175
CATGATAC	-0.0314
CGAATGAA	-0.0129
CTTTTGCC	-0.0123
GGACAGCA	-0.00603
ATTTCCTG	-0.0599
GAGACCCC	0.0314
AGACTTTG	-0.255
AGGGGGGG	-0.331
ACTGCTAG	-0.267
GATCAGTA	-0.0307
AATTTTGA	-0.0914
CCAAGGAA	-0.0481
CCCGTCGA	-0.00534
GATAAAAA	0.0398
ACTATGGA	-0.119
AAAGTGTC	0.0945
ATGAGAGG	-0.115
ATTCACAG	-0.182
ACGAAGAA	-0.0808
AGCCCGTA	0.0737
AGAGCTTG	-0.334
GTACGATA	-0.189

Sequence	PBM E-score
AACGTTTA	-0.0796
GCCACTCC	0.0842
ACGGAATA	0.236
ACGCCGGA	0.381
CCCGTCGC	0.151
AAACACCC	0.154
CAAAATTA	-0.0607
CCCCAAGG	-0.22
CTGCTTCA	-0.303
CCAACTGA	-0.324
CGTCATAA	-0.0381
AAACATGT	0.0406
AAATCCAC	0.0573
GTTGCACA	-0.32
GGGACAGA	-0.0679
GATTACAA	0.103
ATTGGTCG	-0.0334
CGCGACGC	0.0259
TCAAGCGA	0.0133
CAAGACAC	-0.151
CCGGCGCA	0.294
CGTACTCA	-0.0902
GGCTTGAC	-0.117
ACAATGAA	-0.165
CGCTGTGA	-0.17

Sequence	PBM E-score
AGCCGGTA	0.414
CCCCCCAG	-0.32
AGAGCTCA	-0.191
ACCTCATA	-0.0658
ATGTGTAG	-0.0534
CTCGTGTA	-0.0874
GGAGGTAA	0.258
GCGATCGC	0.178
CAGGTGAC	-0.175
CGGTCCTC	0.216
CGAAACTA	0.0773
GGTCATGA	-0.0633
AGTGCAAT	-0.242
CCTCGCGC	0.0438
CTCATAAA	-0.0862
ATACCTGA	-0.0737
CCTAGACA	-0.188
CGATTTGC	0.0952
ATCTAGAG	-0.0788
AGGCCCCG	-0.00755
ATCTATGA	-0.203
ACACGCCG	0.244
GTGCCCGA	0.161
AAGTACTG	-0.0833
AAACACAA	-0.169

Sequence	PBM E-score
AGACGCGA	0.0238
CTTGCGTA	-0.117
ACATCCCG	0.302
CGGAGGAC	0.325
AACGGGTA	0.0822
AAAAGTAG	-0.174
CACCGACA	0.226
AGAGTGAG	-0.132
ACTTGTCA	0.0911
AGCAAGAC	-0.0948
ATTAATTG	-0.054
ACGTTCCC	-0.101
CTGGACAG	-0.13
CCAATAGC	-0.0632
CACACCTC	0.0394
ATGGGAAG	-0.253
AGAATCTA	-0.142
AACTTGTG	-0.0262
CGTCCAAA	0.0813
ATTTTAGG	-0.0974
AAACGATA	-0.0324
CTTGCAAG	0.103
ATAGCGTA	0.0245
ATATGTTA	-0.155
TACCCTGA	-0.199

Sequence	PBM E-score
CTGACGAC	-0.151
ACAGCATC	-0.0955
AATGAGGA	-0.199
GATACAAA	0.0995
AAAGACGT	0.0653
CATGGTAG	-0.279
CAGCGGGG	0.0523
GTTTCCTA	-0.156
ACAGCAAC	-0.0788
ATCCTAAG	-0.176
AAAACGGA	0.208
CGTATCAC	-0.0289
CATTGTAC	-0.164
TTCCAGAA	-0.0714
CTTACCCA	-0.113
CTGCAATA	-0.0479
GAGATACA	0.141
AGGATCAG	-0.217
ACTTCAGC	-0.209
TGTGACAA	-0.177
GGATTACC	0.231
GATAGGAA	0.0453
AAGCGTGG	-0.0777
AGAACGCT	-0.216
GACACGGA	0.233

Sequence	PBM E-score
CCAATACG	-0.111
AAGAAATT	0.0979
GACCTACA	-0.135
GTACATGA	-0.307
GAGGGTCA	-0.209
CTGGCATA	-0.0878
TCTAGTCA	-0.174
CACCACGC	-0.201
CATAAGCC	0.0632
CAACGAGG	-0.16
CAACGAGA	-0.0854
CCGCGGTA	0.303
GCTCTTAC	0.0248
TGCTCAAA	-0.145
AGATTCAA	-0.0472
CAATATTG	-0.318
AATTGTCA	-0.227
CGGGGCCC	0.258
TAGACAGA	-0.17
ACCGATTG	0.0789
GTAACGAA	-0.241
AACATGCT	-0.0758
CCCATACG	-0.0568
CGTATGCA	-0.0239
CAGCCAGA	-0.106

Sequence	PBM E-score
GAAAGCTC	-0.118
AAAAGAGT	-0.161
AGAGAGGC	-0.218
GATGGAAC	-0.0721
GCCTAGTA	-0.0319
CATTATAA	0.0319
AGAGTTAC	-0.312
AATGTTTG	-0.0712
AAGCATAG	-0.309
ACAGTTGG	-0.245
GACTGAGC	-0.313
CATCATAC	-0.0798
ATTATCGA	-0.0673
GGGGTCGA	0.114
ATATCGAG	0.163
ACGAAGCA	-0.243
CCCTCCTA	-0.0102
AATGCTCT	-0.23
GCAAATAC	-0.0284
CGTCCGGC	0.41
AAACCGGT	0.32
CCGGTTCA	0.267
GCGGTCCA	0.0745
GAGGTCAA	-0.0531
GAAGAGGC	0.0554

Sequence	PBM E-score
ATCCAACC	0.0312
AGCGTAGG	-0.122
GCTGAGAC	-0.0677
CGAGCTAA	0.237
AGGCCTAT	-0.286
GCTAATGA	-0.088
GATGCAAA	-0.165
GGCGTGAC	-0.0962
GATGCCGA	0.224
GCTGGAGA	-0.133
AACATCCT	-0.172
AGACGGCT	-0.00912
GCCGGGTA	0.252
ACACTTGC	-0.111
GTATAACA	-0.029
CTTGATCC	-0.0265
AAATGGTA	-0.136
AAAATGCC	-0.0134
CCTTAGAA	-0.0957
